“And” between values parts separate entries of the source, which are not always exact repeats. Equal entries are not always repeated. The inconclusive results got no clear call from the source; some entries with a clear call stand among them for comparison. For some of these results: A potency beside an inconclusive call is a rough fit, not a confirmed value. Where a structure was tested more than once in an assay, its records may differ in their call. The source made the active and inactive calls. Unless noted, calls come from the whole dose curve; as a rule, active = well fitted curve in the direction sought with a large enough effect in the repeat runs; inconclusive = weak or mixed curves; inactive = no such curve, though single readings can be large; an effect the other way counts as inactive or inconclusive.
Key:
[1] = biological target: Peroxisome proliferator-activated receptor gamma (Homo sapiens) (UniProt P37231); assay: qHTS assay to identify small molecule antagonists of the peroxisome proliferator-activated receptor gamma (PPARg) signaling pathway (AID 743191; calls by dose curve; note: nearly all actives have a fitted effect of over 30% in size; for ratio activity, negative = inhibition: % is set by controls: 0 for no effect and ±100 for the full control effect); conditions: HEK293H PPARg-UAS-bla, beta-lactamase ratio, antagonist, 17 h; ratio activity, negative = inhibition: at 62.6 µM (top of the series) unless noted
Chain of UniProt P37231 (P37231 whole entry, looked up): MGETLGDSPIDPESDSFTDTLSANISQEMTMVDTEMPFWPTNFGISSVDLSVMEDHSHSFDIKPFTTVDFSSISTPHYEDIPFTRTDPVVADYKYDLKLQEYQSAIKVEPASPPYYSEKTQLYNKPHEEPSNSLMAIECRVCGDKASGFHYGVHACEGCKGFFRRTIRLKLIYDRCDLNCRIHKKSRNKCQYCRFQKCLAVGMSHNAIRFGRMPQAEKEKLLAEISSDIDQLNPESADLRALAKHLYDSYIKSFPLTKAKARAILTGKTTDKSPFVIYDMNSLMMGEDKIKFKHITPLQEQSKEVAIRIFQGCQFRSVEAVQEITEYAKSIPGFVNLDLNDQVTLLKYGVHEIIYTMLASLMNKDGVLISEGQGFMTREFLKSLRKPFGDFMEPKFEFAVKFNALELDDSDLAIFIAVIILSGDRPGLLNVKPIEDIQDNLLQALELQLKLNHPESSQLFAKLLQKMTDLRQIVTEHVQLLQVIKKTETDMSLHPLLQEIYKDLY
Procedure, shortened: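 GeneBLAzer PPARg UAS-bla HEK293H cells carrying a UAS-driven beta-lactamase reporter were plated at 3000 cells/well, preincubated 5 h at 37C, then given compound for 17 h at 37C; LiveBLAzer B/G FRET substrate was read after 1 h at room temperature.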

[2] = qHTS assay for small molecule activators of the heat shock response signaling pathway - cell viability counter screen (AID 743209); conditions: HSE-bla HeLa viability, CellTiter-Glo luminescence, 5 h; activity change, negative = cytotoxicity: at 62.6 µM (top of the series) unless noted; note: nearly all actives have a fitted effect of over 50% in size; for activity change, negative = cytotoxicity: % is set by controls: 0 for no effect and ±100 for the full control effect
Procedure, shortened: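 Viability of HSE-bla HeLa cells is measured with CellTiter-Glo in the wells already used for the reporter read. Compound exposure lasts 5 h at 37 C, and luminescence is read after 30 min at room temperature.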

[3] = qHTS assay to identify small molecule agonists of the peroxisome proliferator-activated receptor delta (PPARd) signaling pathway - cell viability counter screen (AID 743211); conditions: PPARd-bla HEK293H viability, CellTiter-Glo luminescence, 17 h; activity change, negative = cytotoxicity: at 62.6 µM (top of the series); note: nearly all actives have a fitted effect of over 55% in size; for activity change, negative = cytotoxicity: % is set by controls: 0 for no effect and ±100 for the full control effect
Procedure, shortened: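 Counter screen for cytotoxicity run in parallel with the PPARd reporter screen. Beta-lactamase reporter HEK293H cells exposed to compounds 17 h; ATP-based CellTiter-Glo luminescence quantified viability.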

[4] = qHTS assay to identify small molecule antagonists of the peroxisome proliferator-activated receptor delta (PPARd) signaling pathway - cell viability counter screen (AID 743213); conditions: PPARd-bla HEK293H viability, CellTiter-Glo luminescence, 17 h; viability change, negative = cytotoxic: at 62 µM (top of the series) unless noted; note: nearly all actives have a fitted effect of over 50% in size
Procedure, shortened: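 PPARd-bla HEK293H cells were treated with compounds plus agonist L165041 (300 nM final) for 17 h at 37 C. Viability was then read in the same wells by CellTiter-Glo luminescence after 30 min at room temperature.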

[5] = biological target: Peroxisome proliferator-activated receptor delta (Homo sapiens) (UniProt Q03181); assay: qHTS assay to identify small molecule antagonists of the peroxisome proliferator-activated receptor delta (PPARd) signaling pathway (AID 743215; active = well fitted inhibition curve with a large enough effect in the signal ratio in the repeat runs, not every such curve was filed as active; inconclusive = weak or mixed curves, or effect the other way; inactive = no such curve, though single readings can be large or run the other way; the % refers to the signal ratio;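 note: cells stimulated with agonist L165041 at 300 nM final during compound exposure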; for ratio activity, negative = inhibition: % is set by controls: 0 for no effect and ±100 for the full control effect); conditions: HEK293H PPARd-UAS-bla, beta-lactamase FRET ratio, antagonist, 17 h; ratio activity, negative = inhibition: at 62 µM (top of the series) unless noted
Chain of UniProt Q03181 (Q03181 whole entry, looked up): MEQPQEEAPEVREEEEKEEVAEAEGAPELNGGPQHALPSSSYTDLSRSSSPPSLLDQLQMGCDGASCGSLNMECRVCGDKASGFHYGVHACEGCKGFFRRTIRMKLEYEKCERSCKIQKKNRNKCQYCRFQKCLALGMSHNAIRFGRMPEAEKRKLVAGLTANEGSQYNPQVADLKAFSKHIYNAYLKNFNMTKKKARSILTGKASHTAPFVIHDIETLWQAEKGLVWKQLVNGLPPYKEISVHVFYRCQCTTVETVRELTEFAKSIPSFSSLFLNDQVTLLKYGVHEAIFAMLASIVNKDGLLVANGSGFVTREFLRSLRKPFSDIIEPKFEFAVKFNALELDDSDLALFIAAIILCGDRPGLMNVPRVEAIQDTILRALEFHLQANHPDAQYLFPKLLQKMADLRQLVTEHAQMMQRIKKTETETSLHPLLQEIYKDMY
Procedure, shortened: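 Plated HEK293H PPARd-bla cells rested 5 h at 37 C and 5% CO2. Compound, then agonist L165041 at 300 nM final, was added; 17 h at 37 C followed. Substrate loading, 2 h room temperature, fluorescence measured.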

[6] = qHTS assay to identify small molecule antagonists of the vitamin D receptor (VDR) signaling pathway - cell viability counter screen (AID 743225); conditions: VDR-bla HEK293T viability, CellTiter-Glo luminescence, 16 h; viability change, negative = cytotoxic: at 61 µM (top of the series) unless noted; note: nearly all actives have a fitted effect of over 50% in size
Procedure, shortened: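 HEK293T VDR-bla; cpd + 1a,25-(OH)2D3 3 nM final, 16 h 37C/5% CO2; B/G FRET substrate 2 h RT; then CellTiter-Glo 30 min RT, luminescence.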

[7] = qHTS assay for small molecule agonists of the antioxidant response element (ARE) signaling pathway - cell viability counter screen (AID 743203; calls by dose curve; note: nearly all actives have a fitted effect of over 55% in size); conditions: ARE-bla HepG2 viability, CellTiter-Glo luminescence, 16 h; viability change, negative = cytotoxic: at 73.3 µM (top of the series)
Procedure, shortened: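 Viability counter screen: stably transfected ARE-bla HepG2 line, 16 hrs compound exposure at 37C/5% CO2, ATP-based CellTiter-Glo luminescence measured in the reporter wells.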

[8] = biological target: Peroxisome proliferator-activated receptor delta (Homo sapiens) (UniProt Q03181); assay: qHTS assay to identify small molecule agonists of the peroxisome proliferator-activated receptor delta (PPARd) signaling pathway (AID 743212; calls by dose curve); conditions: HEK293H PPARd-UAS-bla, beta-lactamase FRET ratio, 17 h; activation: at 62.6 µM (top of the series) unless noted
Procedure, shortened: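 Cells expressing a UAS-driven beta-lactamase reporter (PPARd-bla HEK293H) were given test compounds after a 5 h settle and kept at 37 C. Reporter activity was then measured as FRET fluorescence using LiveBLAzer B/G substrate.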

[9] = biological target: Bile acid receptor (Homo sapiens) (UniProt Q96RI1); assay: qHTS assay to identify small molecule antagonists of the farnesoid-X-receptor (FXR) signaling pathway (AID 743217; active = well fitted inhibition curve with a large enough effect in the signal ratio in the repeat runs, not every such curve was filed as active; inconclusive = weak or mixed curves, or effect the other way; inactive = no such curve, though single readings can be large or run the other way; the % refers to the signal ratio); conditions: HEK293T FXR-UAS-bla, beta-lactamase ratio, CDCA-stimulated, 16 h; activity change, negative = inhibition: at 62.6 µM (top of the series) unless noted
Chain of UniProt Q96RI1 (Q96RI1 whole entry, looked up): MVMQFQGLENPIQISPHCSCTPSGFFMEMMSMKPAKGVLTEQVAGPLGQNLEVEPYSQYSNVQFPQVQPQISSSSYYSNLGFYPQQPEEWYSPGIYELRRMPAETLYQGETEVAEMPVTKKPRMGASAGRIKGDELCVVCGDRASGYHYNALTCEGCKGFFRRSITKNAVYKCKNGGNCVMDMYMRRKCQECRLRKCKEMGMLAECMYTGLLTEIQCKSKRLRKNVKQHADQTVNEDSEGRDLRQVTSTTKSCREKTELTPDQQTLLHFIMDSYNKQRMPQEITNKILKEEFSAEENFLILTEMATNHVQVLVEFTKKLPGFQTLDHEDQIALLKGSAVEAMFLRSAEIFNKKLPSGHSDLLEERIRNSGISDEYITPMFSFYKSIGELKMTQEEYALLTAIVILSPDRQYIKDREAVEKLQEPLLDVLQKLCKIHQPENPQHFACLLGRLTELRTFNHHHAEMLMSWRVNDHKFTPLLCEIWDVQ
Procedure, shortened: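 Screen of the Tox21 10K library in quantitative HTS format using FXR-UAS-bla HEK 293T reporter cells. Agonist chenodeoxycholic acid, 50 uM final, added with compounds; 16 h incubation at 37 °C; beta-lactamase FRET fluorescence measured.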

[10] = qHTS assay to identify small molecule agonists of the farnesoid-X-receptor (FXR) signaling pathway - cell viability counter screen (AID 743218); conditions: FXR-bla HEK293T viability, CellTiter-Glo luminescence, 16 h; viability change, negative = cytotoxic: at 62.6 µM (top of the series) unless noted; note: nearly all actives have a fitted effect of over 45% in size
Procedure, shortened: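 Viability of FXR-bla HEK 293T cells is measured by ATP-based CellTiter-Glo luminescence following 16 h compound treatment at 37 C and a prior 2 h room-temperature beta-lactamase substrate step.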

[11] = qHTS assay to identify small molecule antagonists of the farnesoid-X-receptor (FXR) signaling pathway - cell viability counter screen (AID 743221; active = well fitted cell-killing curve with a large enough effect in the repeat runs, not every such curve was filed as active; inconclusive = weak or mixed curves, or effect the other way; inactive = no such curve, though single readings can be large or run the other way; note: nearly all actives have a fitted effect of over 50% in size); conditions: FXR-bla HEK293T viability, CellTiter-Glo luminescence, 16 h; activity change, negative = cytotoxicity: at 62.6 µM (top of the series)
Procedure, shortened: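 Multiplexed counter screen: viability of FXR-bla HEK 293T cells under agonist stimulation by chenodeoxycholic acid (50 uM, final) and test compound for 16 h at 37 C, measured by CellTiter-Glo luminescence in the reporter wells.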

[12] = biological target: Vitamin D3 receptor (Homo sapiens) (UniProt P11473); assay: qHTS assay to identify small molecule agonists of the vitamin D receptor (VDR) signaling pathway (AID 743222; calls by dose curve); conditions: HEK293T VDR-UAS-bla, beta-lactamase FRET ratio, 16 h; activation: at 63.5 µM (top of the series) unless noted
Chain of UniProt P11473 (P11473 whole entry, looked up): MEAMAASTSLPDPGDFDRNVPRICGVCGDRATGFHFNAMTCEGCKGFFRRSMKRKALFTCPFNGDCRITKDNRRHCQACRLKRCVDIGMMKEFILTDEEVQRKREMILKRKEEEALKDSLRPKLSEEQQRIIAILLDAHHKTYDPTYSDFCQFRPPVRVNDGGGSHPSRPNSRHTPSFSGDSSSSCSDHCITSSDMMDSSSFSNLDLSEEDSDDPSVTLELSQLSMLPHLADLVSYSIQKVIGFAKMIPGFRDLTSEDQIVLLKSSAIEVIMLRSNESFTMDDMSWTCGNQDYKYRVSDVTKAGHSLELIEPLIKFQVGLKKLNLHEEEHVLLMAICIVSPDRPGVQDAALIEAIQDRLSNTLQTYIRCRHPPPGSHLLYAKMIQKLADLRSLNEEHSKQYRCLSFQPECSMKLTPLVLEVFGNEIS
Procedure, shortened: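 Fluorescence from cleaved LiveBLAzer B/G FRET substrate served as readout. VDR-bla cells had been treated 16 h at 37C with test compounds in DMSO, following a 4 h settling period, and substrate was loaded for 2 h at RT.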

[13] = biological target: Vitamin D3 receptor (Homo sapiens) (UniProt P11473); assay: qHTS assay to identify small molecule antagonists of the vitamin D receptor (VDR) signaling pathway (AID 743223; active = well fitted inhibition curve with a large enough effect in the signal ratio in the repeat runs, not every such curve was filed as active; inconclusive = weak or mixed curves, or effect the other way; inactive = no such curve, though single readings can be large or run the other way; the % refers to the signal ratio); conditions: VDR-UAS-bla HEK293T, beta-lactamase FRET ratio, 16 h; activity change, negative = inhibition: at 61 µM (top of the series) unless noted
Procedure, shortened: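 Cells carrying a VDR-driven beta-lactamase reporter (VDR-bla) were co-treated with compound and 3 nM final 1alpha,25-dihydroxyvitamin D3 for 16 h at 37C; reporter activity was measured as FRET substrate fluorescence after 2 h at room temperature.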

[14] = qHTS assay for small molecule agonists of the antioxidant response element (ARE) signaling pathway (AID 743202; active = well fitted activation curve with a large enough effect in the signal ratio in the repeat runs, not every such curve was filed as active; inconclusive = weak or mixed curves, or effect the other way; inactive = no such curve, though single readings can be large or run the other way; the % refers to the signal ratio); conditions: HepG2 ARE-bla reporter, beta-lactamase FRET, 16 h
Procedure, shortened: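 Steps: seed ARE-bla HepG2 cells (2,000/well); incubate 5 h at 37 C; add compounds by pin tool; incubate 16 h at 37 C; add FRET substrate; read fluorescence after 2 h at RT.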

[15] = qHTS assay to identify small molecule antagonists of the peroxisome proliferator-activated receptor gamma (PPARg) signaling pathway - cell viability counter screen (AID 743194); conditions: PPARg-bla HEK293H viability, CellTiter-Glo luminescence, 17 h, co-treated with 50 nM rosiglitazone; activity change, negative = cytotoxicity: at 62.6 µM (top of the series) unless noted; note: nearly all actives have a fitted effect of over 55% in size
Procedure, shortened: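 PPARg-UAS-bla HEK293H cells were plated, rested 5 h at 37 C, then treated with compounds plus rosiglitazone (50 nM final) for 17 h at 37 C; viability was then read by CellTiter-Glo luminescence after 30 min at room temperature.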

[16] = biological target: Bile acid receptor (Homo sapiens) (UniProt Q96RI1); assay: qHTS assay to identify small molecule agonists of the farnesoid-X-receptor (FXR) signaling pathway (AID 743220; active = well fitted activation curve with a large enough effect in the signal ratio in the repeat runs, not every such curve was filed as active; inconclusive = weak or mixed curves, or effect the other way; the % refers to the signal ratio); conditions: HEK293T FXR-UAS-bla, beta-lactamase FRET ratio, 16 h; activation: at 62.6 µM (top of the series) unless noted
Procedure, shortened: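 FXR-UAS-bla HEK 293T cells carrying a UAS-driven beta-lactamase reporter were plated for 5 h at 37C/5% CO2, then exposed to DMSO-dissolved Tox21 10K compounds for 16 h at 37C. A LiveBLAzer B/G FRET substrate was loaded for 2 h at room temperature before fluorescence reading.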

[17] = qHTS assay for small molecule activators of the heat shock response signaling pathway (AID 743210; active = well fitted activation curve with a large enough effect in the signal ratio in the repeat runs, with a control signal flat, not every such curve was filed as active; inconclusive = weak or mixed curves; the % refers to the signal ratio); conditions: HeLa HSE-bla reporter, beta-lactamase ratio, 5 h; activation: at 62.6 µM (top of the series)
Procedure, shortened: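 Activation of heat shock element-controlled beta-lactamase expression is measured in HeLa cells by LiveBLAzer FRET fluorescence, with compound exposure lasting 5 h at 37 C and substrate loading 2.5 h at room temperature.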

[18] = qHTS assay to identify small molecule agonists of the vitamin D receptor (VDR) signaling pathway - cell viability counter screen (AID 743224); conditions: VDR-bla HEK293T viability, CellTiter-Glo luminescence, 16 h; activity change, negative = cytotoxicity: at 62.6 µM (top of the series) unless noted; note: nearly all actives have a fitted effect of over 50% in size
Procedure, shortened: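 Compounds were pin-transferred onto VDR-bla cells plated 4 h earlier; following 16 h incubation at 37C, cell viability was quantified by CellTiter-Glo luminescence after 30 min at room temperature.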

[19] = activation: at 73.3 µM (top of the series) unless noted
Potency is the fitted concentration of half-maximal effect; tags give direction and shape of the fitted curve or compound fluorescence and quenching.

C=C(C)C(=O)OCCC[Si](OC)(OC)OC
inconclusive: ratio activity, negative = inhibition [1] 0.543% | Potency [4] 12.2 µM [cytotoxic, single point] | ratio activity, negative = inhibition [5] 5.18%
inactive: Potency [2] | Potency [3] | Potency [6]

CCOC(=O)C1=C(C)NC(C)=C(C(=O)OCC)C1c1ccccc1/C=C/C(=O)OC(C)(C)C
inconclusive: Potency [1] 11.9 µM [activator, full curve] | Potency [7] 33.5 µM [cytotoxic, single point] | Potency [2] 33.5 µM [cytotoxic, single point] | Potency [3] 33.5 µM [cytotoxic, single point] | Potency [8] 15 µM [rising, partial curve] | Potency [5] 10.6 µM [activator] | Potency [9] 33.5 µM [single point] | Potency [11] 33.5 µM [falling, single point] | Potency [13] 26.8 µM [fluorescent, single point]
active: Potency [10] 23.7 µM | Potency [12] 29.8 µM

CC(C)Oc1ccc2c(=O)c(-c3ccccc3)coc2c1
inconclusive: ratio activity, negative = inhibition [1] -16.5% | Potency [14, 19] 13.3 µM [rising, partial curve] and 16.8 µM [rising, partial curve] | Potency [4] 7.5 µM [rising, full curve, poor fit]
inactive: Potency [8] | Potency [5] | Potency [6]

NCc1cccc(CN)c1
inactive: Potency [1] | Potency [13]
inconclusive: Potency [15] 12.3 µM [cytotoxic, full curve, poor fit] | Potency [4] 2.25 µM [cytotoxic, single point] | ratio activity, negative = inhibition [5] -1.77% [at 80.4 µM] | Potency [11] 4.36 µM [falling, full curve, poor fit]

CCCCCC#CC(=O)OC
inactive: Potency [1] | Potency [14, 19]
inconclusive: activation [8] 8.12% | activity change, negative = inhibition [13] -20.6%

CCCCCN=C(N)N/N=C/c1c[nH]c2ccc(OC)cc12
inconclusive: Potency [1] 33.5 µM [cytotoxic, single point] | Potency [14, 19] 18.8 µM | Potency [8] 33.5 µM [single point] | Potency [5] 33.5 µM [inhibitor, single point] | Potency [9] 33.5 µM [cytotoxic, single point] | Potency [16] 33.5 µM [single point] | activation [12] -19.4%
active: Potency [15] 13.3 µM | Potency [10] 13.3 µM | Potency [13] 13.4 µM | Potency [6] 16.9 µM

SC1CCCCC1
inconclusive: ratio activity, negative = inhibition [1] -23.4% [at 81.1 µM] | activation [14, 19] 1.7% [at 94.8 µM] | Potency [9] 64.2 µM [rising, partial curve, poor fit] | Potency [11] 45.4 µM [falling, partial curve, poor fit]
inactive: Potency [8] | Potency [6]

c1ccc2n[nH]nc2c1
inactive: Potency [1] | activation ([14]; at 73.3 µM (top of the series)) -0.193%
active: Potency [4] 38.9 µM
inconclusive: activation [14, 19] 31.6% | Potency [2] 54.9 µM [cytotoxic, single point] | Potency [17] 52.9 µM | Potency [3] 54.9 µM [cytotoxic, single point] | Potency [5] 54.9 µM [rising, single point]

O=C(O)CS
inconclusive: ratio activity, negative = inhibition [1] 5.58% [at 81.1 µM] | activity change, negative = inhibition [13] -4.62% [at 78.8 µM] | Potency [18] 62.2 µM [cytotoxic, partial curve, poor fit]
inactive: Potency [14, 19] | Potency [6]

CSc1c(Cl)c(Cl)c(Cl)c(Cl)c1Cl
inconclusive: ratio activity, negative = inhibition [1] -24.7% | Potency [15] 43.4 µM [cytotoxic, partial curve, poor fit] | Potency [7] 60.8 µM [cytotoxic, single point] | Potency [2] 43.4 µM [cytotoxic, partial curve, poor fit] | Potency [9] 38.7 µM [inhibitor, partial curve, poor fit] | Potency [10] 48.7 µM [cytotoxic, single point] | Potency [18] 54.6 µM [cytotoxic, single point]

— PubChem BioAssay (Tox21)
